Experimental data: PubChem BioAssay AID1476 (National Center for Advancing Translational Sciences (NCATS), 2009)
Among all 200,000 compounds or so, about 4,500 (2.2%) were called active. The inconclusive results got no clear call from the source; some entries with a clear call stand among them for comparison. Calls come from the whole dose curve; as a rule, active = well fitted inhibition curve with a large enough effect; inconclusive = small, poorly fitted or top-dose-only effect, or effect the other way; inactive = flat fitted curve, though single readings scatter. A potency beside an inconclusive call is a rough fit, not a confirmed value.
Note: nearly all actives have a fitted effect of over 40% in size.
Potency is the fitted concentration of half-maximal effect; tags give direction and shape of the fitted curve.
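Throughout, for max response, negative = inhibition: plate controls were enzyme without inhibitor for no effect and buffer without enzyme for full effect.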

What follows are molecules tested against Cruzipain (Trypanosoma cruzi) (UniProt P25779) (assay: qHTS Assay for Promiscuous and Specific Inhibitors of Cruzain (without detergent)). Details: purified cruzain, Z-FR-AMC fluorescence, no detergent.
Sequence of UniProt P25779 (P25779 whole entry, looked up): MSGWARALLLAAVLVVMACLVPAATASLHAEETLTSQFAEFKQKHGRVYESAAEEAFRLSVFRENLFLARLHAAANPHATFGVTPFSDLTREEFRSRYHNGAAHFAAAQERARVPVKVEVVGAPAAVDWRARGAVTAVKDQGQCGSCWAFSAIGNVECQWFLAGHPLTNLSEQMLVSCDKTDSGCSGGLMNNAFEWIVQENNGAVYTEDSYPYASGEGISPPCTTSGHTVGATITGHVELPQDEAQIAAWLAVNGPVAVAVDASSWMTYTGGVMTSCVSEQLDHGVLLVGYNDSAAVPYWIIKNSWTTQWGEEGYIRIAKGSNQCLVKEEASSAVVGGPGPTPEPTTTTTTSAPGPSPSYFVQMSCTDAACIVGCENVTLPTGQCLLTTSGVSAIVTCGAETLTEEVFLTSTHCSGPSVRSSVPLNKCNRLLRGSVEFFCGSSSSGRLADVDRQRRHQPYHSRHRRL
Summary of the method: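 Purified cruzain at 1.5 nM, pre-incubated 15 min with compound at room temperature in 100 mM sodium acetate pH 5.5, 5 mM DTT, 0.00005% Triton X-100. Reaction started with 2 uM Z-FR-AMC; AMC fluorescence increase over 60 s gives rate.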
`CCCC[C@@H]1C[C@H]1C(NC(=O)c1ccco1)c1ccccc1` (stereo partly drawn) was tested, and the max response, negative = inhibition was inactive: 2.42%. With `CCN(CC)c1ccc(NC(=O)C2CCN(S(=O)(=O)c3cnc[nH]3)CC2)c(C)c1` the max response, negative = inhibition was inactive: -13%. For `Cc1ccc(NC(=O)C2CC(=O)N(c3ccc(OC(C)C)cc3)C2)cc1` (stereo not drawn), the max response, negative = inhibition was inactive: 14.9%. For `CCN(CC)c1nc(N)c2c(N)nc3c(c2c1C#N)CC(c1ccccc1)O3` (stereo not drawn), the Potency was inconclusive: 31.6 µM [inhibitor, single point]. With `CCOc1ccc(CC(=O)NCC(c2cccs2)S(=O)(=O)c2ccc(F)c(C)c2)cc1` (stereo not drawn) the max response, negative = inhibition was inactive: -0.187%. `CC(C)CC(c1nnnn1CC1CCCO1)N1CCN(c2nc3ccccc3s2)CC1` (stereo not drawn) was tested, and the Potency was inconclusive: 31.6 µM [activator, single point]. `Cc1ccc(C(=O)OCC(=O)c2c[nH]c3ccccc23)cc1S(=O)(=O)N1CCCCC1` was tested, and the max response, negative = inhibition was inactive: -12.6%. In the case of `O=C(c1ccccc1)c1nn(-c2ccc(Cl)cc2)c(=O)cc1C(F)(F)F`, the max response, negative = inhibition is reported as inactive: -1.19%. With `CCOc1ccc(CC(=O)Nc2c(C(=O)c3ccccc3)oc3ccc(OC)cc23)cc1OCC` the max response, negative = inhibition was inactive: 5.75%. For `COc1ccccc1-n1c(SCC(=O)NCc2ccc3c(c2)OCO3)nc2cc([N+](=O)[O-])ccc21`, the Potency was inconclusive: 31.6 µM [inhibitor, single point]. In the case of `COc1ccc(NC(=O)C2CCCN(c3nnc(C)c4c(C)n(-c5ccccc5)nc34)C2)cc1Cl` (stereo not drawn), the max response, negative = inhibition is reported as inactive: 1.44%. In the case of `CCC1(CC)Cc2ccccc2-c2nc(CN3CCOCC3)[nH]c(=O)c21`, the Potency is reported as inconclusive: 31.6 µM [activator, single point]. With `Cc1cccc(NC(=S)NCc2ccc3[nH]c4c(c3c2)CCCC4)c1` the Potency was inconclusive: 39.8 µM [inhibitor, single point]. For `CCN(CC)CCCn1c(=S)[nH]c2cc(Cl)ccc2c1=O`, the Potency was inconclusive: 39.8 µM [activator, single point]. With `O=C(Cn1cc(SCc2c(F)cccc2Cl)c2ccccc21)N1CCCC1` the max response, negative = inhibition was inactive: 17.2%. `Cc1cccc(NC(=O)CSc2nnc(CNC(=O)c3ccc(S(=O)(=O)N(C)C)cc3)n2-c2ccc(F)cc2)c1` was tested, and the Potency was inconclusive: 31.6 µM [activator, single point]. `Cc1nc2ccn(Cc3ccco3)c(=O)c2cc1C(=O)N1CCN(c2ccc(F)cc2)CC1` was tested, and the Potency was inconclusive: 39.8 µM [activator, single point]. For `O=S(=O)(c1ccc(F)cc1)N1CCN(c2nc(-c3ccc(F)cc3)cs2)CC1`, the Potency was active: 10 µM. In the case of `COc1cccc(CNC(=O)C(C)n2c(=O)cc(-c3ccccc3)c3c(C)nn(C)c32)c1` (stereo not drawn), the Potency is reported as inconclusive: 31.6 µM [activator, single point]. For `COc1cc2c3cc1Oc1c(OC)c(OC)cc4c1C(Cc1cccc(c1)Oc1ccc(c(O)c1)CC3N(C)CC2)N(C)CC4` (stereo not drawn), the Potency was inconclusive: 39.8 µM [inhibitor, single point]. In the case of `O=C(/C=C/c1ccccc1Cl)Nc1nc(-c2cccs2)ns1`, the Potency is reported as inconclusive: 39.8 µM [inhibitor, single point]. For `CC(=O)N1CCN(c2ccc(NC(=S)NC(=O)COc3ccc(C(C)(C)C)cc3)cc2)CC1`, the Potency was inconclusive: 39.8 µM [activator, single point]. `Cc1ccc(NC(=O)Cn2c(=O)n(Cc3nc(C)no3)c(=O)c3cc4c(cc32)OCO4)cc1` was tested, and the max response, negative = inhibition was inactive: 6.38%. In the case of `Cc1cc(NS(=O)(=O)c2ccc3oc(=O)c4ncn(C)c4c3c2)ccc1Br`, the Potency is reported as inconclusive: 31.6 µM [activator, single point]. `CC1=NN(C(N)=S)C(=O)C1N=Nc1c(C)cc(C)cc1C` (stereo not drawn) was tested, and the Potency was active: 12.6 µM. In the case of `CCCCNC(=O)[C@@H]1Cc2ccccc2N1C(=O)[C@H](N)CC`, the max response, negative = inhibition is reported as inactive: 4.25%. For `C=C(C)COc1ccc(-c2nc(N)ncc2-c2ccc(OC)cc2)c(O)c1`, the Potency was inconclusive: 31.6 µM [inhibitor, single point]. With `Nc1c(C(=O)NCCN2CCOCC2)c2nc3ccccc3nc2n1-c1ccccc1` the Potency was inconclusive: 20 µM [activator, partial curve]. `O=[N+]([O-])c1cccc(/C=N/Nc2nnc(-c3ccccc3)c(-c3ccccc3)n2)c1` was tested, and the Potency was active: 7.94 µM. `CN1C(=O)/C(=C\c2cc(N=Nc3ccccc3)ccc2O)SC1=S` was tested, and the Potency was active: 25.1 µM. For `O=C(COC(=O)c1ccc(O)cc1)Nc1ccccc1-c1ccccc1`, the max response, negative = inhibition was inactive: -15.1%. In the case of `CC(C)C(C(=O)Nc1sc2c(c1C#N)CCCCC2)N1C(=O)c2ccccc2C1=O` (stereo not drawn), the Potency is reported as inconclusive: 31.6 µM [inhibitor, single point]. With `CCOc1ccc(-c2nnc(SCC(=O)Nc3cc(C)ccc3OC)o2)cc1` the Potency was inconclusive: 31.6 µM [inhibitor, single point]. For `Cc1ccc(S(=O)(=O)N(C(=O)c2ccco2)c2cc3sc(=O)oc3c3ccccc23)cc1`, the Potency was inconclusive: 39.8 µM [inhibitor, single point]. For `Cc1ccc(CCNC(=O)CSCc2nc(-c3ccc(C)cc3)oc2C)cc1`, the max response, negative = inhibition was inactive: 23.6%. In the case of `Cc1ccc(CNC(=O)c2nn(C)c3c2CSc2ccc(C)cc2-3)cc1`, the Potency is reported as active: 20 µM. In the case of `Cc1ccc(S(=O)(=O)c2nc(-c3ccc(F)cc3)oc2SCC(=O)NCC2CCCO2)cc1` (stereo not drawn), the Potency is reported as inconclusive: 31.6 µM [inhibitor, single point]. `Cc1cccn2c(=O)cc(COc3cccc(NC(=O)c4cccc(Cl)c4)c3)nc12` was tested, and the max response, negative = inhibition was inactive: -10.3%. For `Clc1ccc2c(c1)N(CCCN1CCCC13CCCCC3)c1ccccc1S2`, the max response, negative = inhibition was inactive: 7.26%. In the case of `Cc1c(NC(=O)c2ccc(COc3ccc4ccccc4c3)o2)c(=O)n(-c2ccccc2)n1C`, the Potency is reported as inconclusive: 39.8 µM [activator, single point]. `O=[N+]([O-])c1ccc(C2Oc3ccccc3C3CC(c4ccccc4)=NN32)s1` (stereo not drawn) was tested, and the Potency was active: 15.8 µM. `COc1ccccc1C(=O)NCC(=O)N/N=C/c1cc(Br)ccc1OCc1ccccc1` was tested, and the Potency was inconclusive: 39.8 µM [inhibitor, single point]. `CC(C)(C)c1ccc(OCCON2C(=O)CCC2=O)c(Cl)c1` was tested, and the Potency was inconclusive: 39.8 µM [activator, single point].
